# Some of the results follow.
# System: HepG2
# Test: cytotoxicity call (relative viability < 0.9)
# Conditions: 10 µM
row,Compound,cytotoxicity call
1,C[C@H]1CN([C@@H](C)CO)C(=O)Cc2cc(NC(=O)CCN3CCOCC3)ccc2O[C@H]1CN(C)C(=O)Nc1ccccc1,inactive
2,CN1CCN(S(C)(=O)=O)CC1,inactive
3,C[C@H](CO)N1C[C@H](C)[C@@H](CN(C)S(=O)(=O)c2ccccc2)OCCCC[C@H](C)Oc2ccc(NC(=O)Nc3ccc4c(c3)OCO4)cc2C1=O,inactive
4,C[C@@H]1CN([C@@H](C)CO)S(=O)(=O)c2ccc(C#C[C@@H](C)O)cc2O[C@@H]1CN(C)C(=O)c1ccncc1,inactive
5,O=c1[nH]cc(NCc2ccccc2)c(=O)[nH]1,inactive
6,Cc1ccc(S(=O)(=O)Nc2ccc3c(c2)C(=O)N([C@H](C)CO)C[C@H](C)[C@@H](CN(C)S(=O)(=O)c2ccc(F)cc2)OCCCC[C@@H](C)O3)cc1,inactive
7,COc1cccc(S(=O)(=O)Nc2ccc3c(c2)[C@@H]2C[C@H](CC(=O)NCCc4ccccc4)O[C@H](CO)[C@@H]2O3)c1,inactive
8,C[C@H](CO)N1C[C@H](C)[C@@H](CN(C)Cc2ccc(-c3ccccc3)cc2)Oc2ccc(NC(=O)Nc3ccc(C(F)(F)F)cc3)cc2CC1=O,active
9,CC[C@@H](N)c1nc(C)c(C)s1,inactive
10,O=C(C[C@H]1CC[C@@H]2[C@H](COC[C@H](O)CN2C(=O)c2ccc3c(c2)OCO3)O1)NC1Cc2ccccc2C1,inactive
11,C[C@H](CO)N1C[C@H](C)[C@@H](CN(C)Cc2ccc(C(=O)O)cc2)OCCCC[C@H](C)Oc2ccc(NC(=O)Nc3ccc(C(F)(F)F)cc3)cc2C1=O,inactive
12,C#CC[C@H](c1nc2cc(Cl)ccc2c(=O)n1Nc1ccccc1)N(CCCN)C(=O)c1cccc(Cl)c1F,active
